Measurements reported in PubChem BioAssay AID651820 (National Center for Advancing Translational Sciences (NCATS), 2012).
Screen size: about 340,000 compounds; about 12,000 (3.5%) were called active. The inconclusive results got no clear call from the source; some entries with a clear call stand among them for comparison. Calls come from the whole dose curve; as a rule, active = well fitted inhibition curve with a large enough effect; inconclusive = small, poorly fitted or top-dose-only effect, or another doubt; inactive = no such curve, though single readings can be large or run the other way. No potency is given beside an inconclusive call; the fits are too rough.

test: qHTS Assay for Inhibitors of Hepatitis C Virus (HCV); settings: Huh7.5.1 HCVcc-Cre (HCVcc is cell-culture hepatitis C virus) infection, luciferase reporter, 44 h; activity change, negative = inhibition: at 41.8 µM (top of the series) unless noted
How it was run: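 Whole-lifecycle infectious HCVcc-Cre system; cells 1,000/well, compound then virus (~0.5 moi) added 4 h after plating, 44 h culture. Luciferase read 15 sec following 15 min substrate incubation, room temp.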
% is set by controls: 0 for no effect and ±100 for the full control effect; potency is the fitted concentration of half-maximal effect; tags give direction and shape of the fitted curve.

Row | Structure (SMILES) | Potency | activity change, negative = inhibition
1 | Cc1c(/N=C(\[O-])Nc2ccc(Br)cc2)sn[n+]1C | inconclusive [inhibitor, single point] | 
2 | COc1ccc(N(C)S(=O)(=O)c2cccc(C(=O)NCc3ccc4c(c3)OCO4)c2)cc1 | inconclusive [inhibitor, single point] | 
3 | CSc1nc(C)c(C(=O)C[n+]2ccc(C)cc2)cc1C#N | inconclusive [inhibitor, partial curve] | 
4 | CCN(CC)S(=O)(=O)c1ccc(C(=O)NCc2ccc(C)cc2)cc1 |  | inactive: 0.319%
5 | O=C(O)CC1(c2ccccc2)C(=O)c2ccccc2C1=O |  | inactive: 2.76%
6 | CC(C)Cc1nc2oc3c(NCc4cccnc4)ncnc3c2c2c1CCC2 | inconclusive [inhibitor, partial curve, poor fit] | 
7 | CCCN(CCC)C(=O)C1CCN(c2cc(C)nc3c(-c4ccc(OC)c(OC)c4)c(C)nn23)CC1 | inconclusive [inhibitor, single point] | 
8 | C=CCNc1nc(NCc2ccccc2)c(C#N)c2c1CN(C)CC2 | active: 17.8 µM | 
9 | CCN(CC(=O)NCc1cccs1)C(=O)CCC(=O)c1ccc(C)cc1 |  | inactive: 21.8%
10 | COc1cc(NC(=O)c2cnc(N)o2)cc(C(=O)Nc2cccc(C(F)(F)F)c2)c1 | inconclusive [inhibitor, partial curve] | 
11 | O=C(NCCc1csc(-c2cccnc2)n1)c1ccccc1Br |  | inactive: -19.4%
12 | Cc1cc(Nc2ccccc2)nc(N2CCOCC2)n1 | active: 10 µM | 
13 | CC(C)C[C@H](NC(=O)c1nc[nH]c1C(=O)N(C)Cc1ccccc1)C(=O)OC(C)(C)C |  | inactive: 9.1%
14 | CN(C)c1cc[n+](CC(=O)Nc2ccc(Cl)c([N+](=O)[O-])c2)cc1 |  | inactive: 7.51%
15 | COCc1nc(-c2ccc(-c3ccc(C)cc3)nc2OC)no1 | inconclusive [inhibitor, single point] | 
16 | CCCCNC(=O)c1[nH]c(C)c(C(C)=O)c1C |  | inactive: 1.43%
17 | O=C(CCCCN1CCCCC1)c1ccc2c(c1)Cc1ccccc1-2 | inconclusive [inhibitor, full curve] | 
18 | CCN(CC)CCCNC(=O)c1cc(Cl)c(NC(=O)C2=C(C)OCCS2)cc1OC | active: 11.2 µM | 
19 | Cc1c(O)c2c3c(cccc3c1O)C(=O)N(c1ccccc1)C2=O | inconclusive [inhibitor, single point] | 
20 | Cc1cccc(-n2c(C)nc3c(cnn3-c3ccc(F)cc3)c2=O)c1 | active: 6.31 µM | 
21 | Cc1ccc(NC(=O)Nc2ccc(Cl)c(Cl)c2)nc1 |  | inactive: 3.9%
22 | O=C(Nc1ccc(Cl)cc1)Nc1nnc(CSCc2ccccc2Cl)s1 | inconclusive [inhibitor, single point] | 
23 | O=C1c2ccccc2C(=O)N1CCCCc1cn(C[C@H]2CC[C@@H]([C@@H]3CC[C@H](Cn4cc(CCCCN5C(=O)c6ccccc6C5=O)nn4)O3)O2)nn1 | inconclusive [inhibitor, partial curve] | 
24 | C/C=C/c1ccc(OCC(=O)OCC)c(OC)c1 |  | inactive: 7.28%

Row | Structure (SMILES) | Potency | activity change, negative = inhibition
25 | O=C(Nc1nc2c(s1)CCCC2)c1ccc(Br)o1 | inconclusive [inhibitor, single point] | 
26 | NS(=O)(=O)c1ccc(CCN2C(=O)/C(=C\c3ccc(Cl)cc3)SC2=S)cc1 | inconclusive [inhibitor, single point] | 
27 | COc1cccc(NC(=O)CN(C)C(=O)c2cc(S(=O)(=O)Nc3ccccc3OC)ccc2C)c1 | inconclusive [inhibitor, partial curve] | 
28 | S=c1[nH]nc(-c2ccco2)n1-c1ccc(Br)cc1 | inconclusive [inhibitor, single point] | 
29 | CC(=O)c1sc(NC(=O)C(C)(C)C)nc1C |  | inactive: -3.85%
30 | COc1ccc(Cl)cc1Nc1nc(N)c2ccccc2n1 | active: 14.1 µM | 
31 | Cc1nc2ncnn2c(C)c1CCC(=O)NCCCN1CCN(c2cccc(Cl)c2)CC1 | inconclusive [inhibitor, single point] | 
32 | Cc1ncc(CO)c2c1Oc1nc(-c3ccccc3)nc(SCC(=O)N3CCCCC3)c1C2 | inconclusive [inhibitor, partial curve] | 
33 | O=C(Nc1ccccc1C(=O)N1CCCCCC1)c1cccc(S(=O)(=O)N2CCOCC2)c1 |  | inactive: -0.37%
34 | CCOC(=O)C1CCCN(C(=O)c2ccc(S(=O)(=O)N3CCCC3)cc2)C1 (configuration not stated) | inconclusive [inhibitor, full curve] | 
35 | CS(=O)(=O)Nc1ccc(C2=NN(S(=O)(=O)c3ccc(F)cc3)C(c3ccco3)C2)cc1 (configuration not stated) |  | inactive: -22.6%
36 | CC1Cc2ccccc2N1C(=O)CN(C)CC(=O)Nc1cccc(F)c1 (configuration not stated) | inconclusive [inhibitor, single point] | 
37 | COc1cc(CN2CCc3ccc(NC(=O)CCc4ccccc4OC)cc3C2)ccc1O | inconclusive [inhibitor, partial curve] | 
38 | O=C(CN1CCOCC1)Nc1ccc2c(c1)CCC2 |  | inactive: 13.7%
39 | O=C(CN1C(=O)CCC1=O)Nc1nc(-c2nc3ccccc3s2)cs1 | inconclusive [inhibitor, single point] | 
40 | O=C(COc1ccc([N+](=O)[O-])cc1)Nc1ccc2c(c1)nc1n2CCOC1 |  | inactive: -18.5%
41 | Cc1cc(C)cc(NC(=O)c2ccc3c(c2)CCN3S(C)(=O)=O)c1 |  | inconclusive: -36.2% [inhibitor]
42 | O=C(Cn1c(=O)n(CC(=O)NCc2ccccc2)c2ccccc21)NCc1ccccc1 | active: 7.08 µM | 
43 | CCOc1ccc(NC(=O)c2ccc(NC(=O)c3ccccc3Br)cc2)cc1 | active: 5.01 µM | 
44 | C=CCNC(=O)C1=NN(c2c(F)c(F)cc(F)c2F)C(=O)CC1 | inconclusive [inhibitor, single point] | 
45 | CCN(CC)S(=O)(=O)c1ccc(NC(=O)c2cc(C(=O)OC)cc([N+](=O)[O-])c2)cc1 | inconclusive [inhibitor, partial curve] | 
46 | C/C(=N/OCO/N=C(\C)c1ccccc1F)c1ccccc1F |  | inactive: -5.71%
47 | Cc1ccc(C)c(NC(=O)C(Sc2ncnc3ccccc23)c2ccccc2)c1 (configuration not stated) | inconclusive [inhibitor, single point] | 
